Measurements taken from article doi:10.1101/2025.06.02.656870, “Replaying germinal center evolution on a quantified affinity landscape” (bioRxiv, 2025).

What was measured:
Assay in all cases: flow cytometry on cells; deep mutational scanning: scFv library on the yeast surface, biotinylated IgY (CGG) at 10-fold steps from 10^-6 to 10^-13 M, PE-streptavidin, FACS into four bins and sequencing; mean of two independent experiments
Details in all cases: one partner purified
clone 2.1 scFv Y38HE = target: T1, clone 2.1 scFv Y38HE
T1 construct: as the VH of m4, with Y38E; as the Vκ of m4; source: yeast-surface display (pETcon vector), site-saturation mutagenesis library, on yeast cells

clone 2.1 scFv N108LR = target: T2, clone 2.1 scFv N108LR
T2 construct: as the VH of m4; as the Vκ of m4, with N108R; source: yeast-surface display (pETcon vector), site-saturation mutagenesis library, on yeast cells

clone 2.1 scFv Y42LN = target: T3, clone 2.1 scFv Y42LN
T3 construct: as the VH of m4; as the Vκ of m4, with Y42N; source: yeast-surface display (pETcon vector), site-saturation mutagenesis library, on yeast cells
T3 sequence (heavy, as listed by the source, chain 1 of 2): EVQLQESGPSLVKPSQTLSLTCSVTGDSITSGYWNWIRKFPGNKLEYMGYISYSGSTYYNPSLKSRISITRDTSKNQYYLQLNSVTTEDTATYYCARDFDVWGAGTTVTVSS
T3 sequence (light, as listed by the source, chain 2 of 2): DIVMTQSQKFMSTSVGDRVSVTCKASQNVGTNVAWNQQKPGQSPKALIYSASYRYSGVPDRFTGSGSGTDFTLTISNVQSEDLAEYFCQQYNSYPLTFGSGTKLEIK

T2 sequence (light, as listed by the source, chain 2 of 2): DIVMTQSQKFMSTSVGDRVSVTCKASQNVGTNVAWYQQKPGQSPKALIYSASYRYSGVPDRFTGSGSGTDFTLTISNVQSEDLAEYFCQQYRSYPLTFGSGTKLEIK
T1 sequence (heavy, as listed by the source, chain 1 of 2): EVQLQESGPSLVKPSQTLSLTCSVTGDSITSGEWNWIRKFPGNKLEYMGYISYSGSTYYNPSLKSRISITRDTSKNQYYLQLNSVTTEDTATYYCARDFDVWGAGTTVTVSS
T1 sequence (light, as listed by the source, chain 2 of 2): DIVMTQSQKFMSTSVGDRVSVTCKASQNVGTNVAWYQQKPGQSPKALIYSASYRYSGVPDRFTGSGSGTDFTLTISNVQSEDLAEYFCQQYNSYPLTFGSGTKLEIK

B1: chicken IgY (natural protein)
chain: AVTLDESGGGLQTPGGTLSLVCEGSGFTFSSFHMQWVRQALGKGLEWVAGISGSGKYTSYGAAVKGRATISRDNGQSTVRLQLNNLKAEDTGTYYCTRSSCGGCCDWSPYTTGCGAYSTGTIDAWGHGTEVIVSSASPTSPPRLYPLSACCSDSAVPPAVGCLLSPSSAGGISWEGSGGTAVAGRVSGTPVKLSFVRLSPGEKRKSFVCSAAPGGALLKKEVQVCRVDPVPPVAPEVQVLHPSSCTPSQSESVELLCLVTGFSPASAEVEWLVDGVGGLLVASQSPAVRSGSTYSLSSRVNVSGTDWREGKSYSCRVRHPATNTVVEDHVKGC[sequence of about 250 residues omitted]
modifications: biotin (only the form used for yeast display, Exalpha IgY-B)
Δaffinity (−Δlog10(KD) against the naïve 2.1 scFv) (clone 2.1 scFv Y38HE): -3 log10 | Δaffinity (−Δlog10(KD) against the naïve 2.1 scFv) (clone 2.1 scFv N108LR): 0.91 log10 | Δaffinity (−Δlog10(KD) against the naïve 2.1 scFv) (clone 2.1 scFv Y42LN): 0.26 log10
